The list shows a part of the results. Rule as the data show it: active = 3.2 or more and inactive = the rest. The signal is at background level for most entries.

The values below come from the supplement of paper PMC10369915.
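Also: displayed peptides selected on beads carrying the immobilized SH2 domain, with library peptides lacking any tyrosine serving as negative controls.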

For the first assay, the target named is SHP2 C-SH2 domain E139D. The experiment in a line: enrichment score (SH2-bound / input frequency) (ratio); bacterial display of known human phosphotyrosine sites (pTyr-Var adds point mutants) read by sequencing; higher = stronger binding; tyrosines were phosphorylated by kinases first. The settings on record: peptide library: pTyr-Var.
With ARMTNYGLPRF [TSPAN12_Y138_YF], the enrichment score is inactive: 0.858.

As for SLESAYPEGSQ [TTF1_Y357], the enrichment score is inactive: 0.486.

For GYITSYREEEQ [TTN_Y19764], the enrichment score was inactive: 0.833.

For TFLRTYTDTMQ [TSPAN7_Y124_A127T], the enrichment score was inactive: 0.841.

IKETHYMVDRC [TTN_Y19087]: the enrichment score is inactive: 0.777.

For DAMQTYNGNDE [TSPAN7_Y131], the enrichment score was inactive: 0.375.

On to TENAGYYFRVS [TTN_Y31721], for which the enrichment score was inactive: 0.729.

On to VHVEVYDRPSP [TTN_Y16422], for which the enrichment score is inactive: 0.806.

Take EHLNRYINDTF [TTLL10_Y446_S448N]: the enrichment score was inactive: 1.32.

In the case of LTDLRYKVSGL [TTN_Y22641], the enrichment score was inactive: 0.661.

In the case of IAKNPYDPPGR [TTN_Y20412], the enrichment score is inactive: 0.955.

As for LGKGSYAKVKS [TSSK2_Y23], the enrichment score is inactive: 0.935.

Take ENAGYYFQVSA [TTN_Y31722_R31724Q]: the enrichment score is inactive: 0.887.

For ESSKAYERALS [TTC37_Y1074], the enrichment score was inactive: 0.555.

On to ANNEFYFRVCA [TTN_Y18998_YF], for which the enrichment score is inactive: 0.625.

Regarding IKETHYMVDKC [TTN_Y19087_R19091K], the enrichment score was inactive: 0.928.

On to LAVNPYGPPDL [TTN_Y22579_P22584L], for which the enrichment score was inactive: 0.786.

Regarding KINKMYSDHAM [TTN_Y20328_R20331H], the enrichment score was inactive: 0.649.

Regarding ANVKWYRSGRE [TTN_Y13783_N13785S], the enrichment score was inactive: 0.239.

A further assay deals with SHP2 C-SH2 domain wild-type. Described as above. The settings on record: peptide library: pTyr-Var.
For the molecule ARMTNYGLPRF [TSPAN12_Y138_YF], the enrichment score is inactive: 0.837.

In the case of SLESAYPEGSQ [TTF1_Y357], the enrichment score was inactive: 0.499.

With GYITSYREEEQ [TTN_Y19764], the enrichment score was inactive: 0.783.

In the case of TFLRTYTDTMQ [TSPAN7_Y124_A127T], the enrichment score was inactive: 0.728.

Regarding IKETHYMVDRC [TTN_Y19087], the enrichment score was inactive: 0.919.

As to DAMQTYNGNDE [TSPAN7_Y131], the enrichment score is inactive: 0.393.

As for TENAGYYFRVS [TTN_Y31721], the enrichment score was inactive: 0.794.

In the case of VHVEVYDRPSP [TTN_Y16422], the enrichment score is inactive: 0.874.

Turning to EHLNRYINDTF [TTLL10_Y446_S448N], the enrichment score is inactive: 1.15.

For the molecule LTDLRYKVSGL [TTN_Y22641], the enrichment score was inactive: 0.504.

IAKNPYDPPGR [TTN_Y20412]: the enrichment score was inactive: 0.823.

LGKGSYAKVKS [TSSK2_Y23]: the enrichment score is inactive: 0.856.

Consider ENAGYYFQVSA [TTN_Y31722_R31724Q], for which the enrichment score is inactive: 0.738.

Regarding ESSKAYERALS [TTC37_Y1074], the enrichment score was inactive: 0.684.

On to ANNEFYFRVCA [TTN_Y18998_YF], for which the enrichment score was inactive: 0.864.

In the case of IKETHYMVDKC [TTN_Y19087_R19091K], the enrichment score is inactive: 0.725.

Turning to LAVNPYGPPDL [TTN_Y22579_P22584L], the enrichment score was inactive: 0.761.

For KINKMYSDHAM [TTN_Y20328_R20331H], the enrichment score was inactive: 0.639.

Consider ANVKWYRSGRE [TTN_Y13783_N13785S], for which the enrichment score was inactive: 0.25.

For a further assay, the target named is SHP2 N-SH2 domain L43F. Described as above. The settings on record: peptide library: pTyr-Var.
Take ARMTNYGLPRF [TSPAN12_Y138_YF]: the enrichment score is inactive: 0.707.

For SLESAYPEGSQ [TTF1_Y357], the enrichment score was inactive: 0.549.

Regarding GYITSYREEEQ [TTN_Y19764], the enrichment score is inactive: 0.837.

As to TFLRTYTDTMQ [TSPAN7_Y124_A127T], the enrichment score is inactive: 2.78.

Turning to IKETHYMVDRC [TTN_Y19087], the enrichment score is inactive: 0.849.

With DAMQTYNGNDE [TSPAN7_Y131], the enrichment score is inactive: 0.377.

As for TENAGYYFRVS [TTN_Y31721], the enrichment score is inactive: 0.391.

Take VHVEVYDRPSP [TTN_Y16422]: the enrichment score was inactive: 0.742.

As for EHLNRYINDTF [TTLL10_Y446_S448N], the enrichment score is inactive: 1.34.

Consider LTDLRYKVSGL [TTN_Y22641], for which the enrichment score was inactive: 0.472.

As for IAKNPYDPPGR [TTN_Y20412], the enrichment score is inactive: 0.573.

As to LGKGSYAKVKS [TSSK2_Y23], the enrichment score is inactive: 0.715.

ENAGYYFQVSA [TTN_Y31722_R31724Q]: the enrichment score is inactive: 0.733.

Regarding ESSKAYERALS [TTC37_Y1074], the enrichment score is inactive: 0.537.

Regarding ANNEFYFRVCA [TTN_Y18998_YF], the enrichment score is inactive: 0.692.

On to IKETHYMVDKC [TTN_Y19087_R19091K], for which the enrichment score was inactive: 0.82.

Regarding LAVNPYGPPDL [TTN_Y22579_P22584L], the enrichment score was inactive: 1.08.

Regarding KINKMYSDHAM [TTN_Y20328_R20331H], the enrichment score was inactive: 0.451.

Take ANVKWYRSGRE [TTN_Y13783_N13785S]: the enrichment score is inactive: 0.21.

Another assay has as its target SHP2 N-SH2 domain T42A. The assay is described as above. The following applies: peptide library: pTyr-Var.
Regarding ARMTNYGLPRF [TSPAN12_Y138_YF], the enrichment score was inactive: 0.701.

SLESAYPEGSQ [TTF1_Y357]: the enrichment score was inactive: 0.492.

Consider GYITSYREEEQ [TTN_Y19764], for which the enrichment score was inactive: 0.633.

In the case of TFLRTYTDTMQ [TSPAN7_Y124_A127T], the enrichment score was inactive: 1.03.

Turning to IKETHYMVDRC [TTN_Y19087], the enrichment score was inactive: 0.805.

With DAMQTYNGNDE [TSPAN7_Y131], the enrichment score was inactive: 0.452.

As for TENAGYYFRVS [TTN_Y31721], the enrichment score is inactive: 0.477.

Regarding VHVEVYDRPSP [TTN_Y16422], the enrichment score was inactive: 0.78.

Take EHLNRYINDTF [TTLL10_Y446_S448N]: the enrichment score is inactive: 1.15.

Turning to LTDLRYKVSGL [TTN_Y22641], the enrichment score was inactive: 0.567.

Turning to IAKNPYDPPGR [TTN_Y20412], the enrichment score was inactive: 0.618.

As to LGKGSYAKVKS [TSSK2_Y23], the enrichment score is inactive: 0.679.

Take ENAGYYFQVSA [TTN_Y31722_R31724Q]: the enrichment score is inactive: 0.738.

As for ESSKAYERALS [TTC37_Y1074], the enrichment score is inactive: 0.46.

For the molecule ANNEFYFRVCA [TTN_Y18998_YF], the enrichment score is inactive: 0.573.

Take IKETHYMVDKC [TTN_Y19087_R19091K]: the enrichment score is inactive: 0.698.

Take LAVNPYGPPDL [TTN_Y22579_P22584L]: the enrichment score is inactive: 0.758.

Take KINKMYSDHAM [TTN_Y20328_R20331H]: the enrichment score is inactive: 0.816.

For the molecule ANVKWYRSGRE [TTN_Y13783_N13785S], the enrichment score was inactive: 0.228.

A further assay concerns the target SHP2 N-SH2 domain T52S. The assay is described as above. The following applies: peptide library: pTyr-Var.
On to ARMTNYGLPRF [TSPAN12_Y138_YF], for which the enrichment score was inactive: 0.681.

Consider SLESAYPEGSQ [TTF1_Y357], for which the enrichment score is inactive: 0.515.

GYITSYREEEQ [TTN_Y19764]: the enrichment score is inactive: 0.831.

TFLRTYTDTMQ [TSPAN7_Y124_A127T]: the enrichment score is inactive: 2.79.

As to IKETHYMVDRC [TTN_Y19087], the enrichment score is inactive: 0.8.

Take DAMQTYNGNDE [TSPAN7_Y131]: the enrichment score was inactive: 0.509.

For the molecule TENAGYYFRVS [TTN_Y31721], the enrichment score was inactive: 0.518.

On to VHVEVYDRPSP [TTN_Y16422], for which the enrichment score is inactive: 0.871.

For the molecule EHLNRYINDTF [TTLL10_Y446_S448N], the enrichment score was inactive: 1.18.

In the case of LTDLRYKVSGL [TTN_Y22641], the enrichment score was inactive: 0.611.

For IAKNPYDPPGR [TTN_Y20412], the enrichment score is inactive: 0.754.

For the molecule LGKGSYAKVKS [TSSK2_Y23], the enrichment score was inactive: 0.704.

Take ENAGYYFQVSA [TTN_Y31722_R31724Q]: the enrichment score is inactive: 0.623.

In the case of ESSKAYERALS [TTC37_Y1074], the enrichment score is inactive: 0.576.

As for ANNEFYFRVCA [TTN_Y18998_YF], the enrichment score is inactive: 0.556.

Consider IKETHYMVDKC [TTN_Y19087_R19091K], for which the enrichment score is inactive: 0.623.

Regarding LAVNPYGPPDL [TTN_Y22579_P22584L], the enrichment score is inactive: 0.786.

On to KINKMYSDHAM [TTN_Y20328_R20331H], for which the enrichment score is inactive: 0.566.

ANVKWYRSGRE [TTN_Y13783_N13785S]: the enrichment score was inactive: 0.232.

Another assay deals with SHP2 N-SH2 domain wild-type. The description is as above. The following applies: peptide library: pTyr-Var.
Regarding ARMTNYGLPRF [TSPAN12_Y138_YF], the enrichment score is inactive: 0.628.

SLESAYPEGSQ [TTF1_Y357]: the enrichment score was inactive: 0.534.

Consider GYITSYREEEQ [TTN_Y19764], for which the enrichment score is inactive: 0.847.

On to TFLRTYTDTMQ [TSPAN7_Y124_A127T], for which the enrichment score was inactive: 0.908.

Consider IKETHYMVDRC [TTN_Y19087], for which the enrichment score is inactive: 0.872.

As for DAMQTYNGNDE [TSPAN7_Y131], the enrichment score is inactive: 0.505.

Consider TENAGYYFRVS [TTN_Y31721], for which the enrichment score was inactive: 0.37.

For VHVEVYDRPSP [TTN_Y16422], the enrichment score is inactive: 1.

For EHLNRYINDTF [TTLL10_Y446_S448N], the enrichment score is inactive: 1.51.

LTDLRYKVSGL [TTN_Y22641]: the enrichment score is inactive: 0.635.

Regarding IAKNPYDPPGR [TTN_Y20412], the enrichment score was inactive: 0.927.

On to LGKGSYAKVKS [TSSK2_Y23], for which the enrichment score is inactive: 0.626.

As for ENAGYYFQVSA [TTN_Y31722_R31724Q], the enrichment score is inactive: 0.883.

Consider ESSKAYERALS [TTC37_Y1074], for which the enrichment score is inactive: 0.552.

On to ANNEFYFRVCA [TTN_Y18998_YF], for which the enrichment score is inactive: 0.964.

For the molecule IKETHYMVDKC [TTN_Y19087_R19091K], the enrichment score was inactive: 0.912.

In the case of LAVNPYGPPDL [TTN_Y22579_P22584L], the enrichment score was inactive: 1.33.

For KINKMYSDHAM [TTN_Y20328_R20331H], the enrichment score is inactive: 0.891.

On to ANVKWYRSGRE [TTN_Y13783_N13785S], for which the enrichment score is inactive: 0.194.
